The test system of the data set is ATP. Put plainly: switch fluorescence ratio, 500 uM ATP over buffer (Cy3 cluster intensity, sum of 5 cycles each) (fold (ratio)); higher = stronger signal-on switching upon ATP binding; sequences stand for … in TCGTCGGCAGCGTCAGATGTGTATAAGAGACAGTTTTTTTTTTTTTTTTTTTTTTTTT…TC. The settings on record: aptamer strand: ATP DNA aptamer (quencher-CACCTGGGGGAGTATTGCGGAGGAAGG + anchor), 100 nM annealed; ATP concentration: 500 uM; one replicate. The method in brief: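 Cy3-labelled switching-strand clusters on a modified Illumina MiSeq flow-cell were annealed to 100 nM quencher-labelled ATP aptamer and imaged first in selection buffer, then after 15 min with 500 uM ATP at 22 °C. NaOH stripping and re-annealing separated each of five buffer/ATP cycles, and clusters outside 100-1000 RFU were excluded. The fluorescence ratio sums target-cycle Cy3 intensity over buffer-cycle Cy3 intensity per cluster and averages it per switch-domain sequence.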

Sequences with one replicate were seen in a single cluster, so their values are uncertain.
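Also: ATP exposure 15 min at 22 °C before imaging.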

Take CTACAGGGAG: the switch fluorescence ratio is 1. For GGCCCAATAA the value was 1.15; for GACCGGGCTA, 1.01. The figure for TAGTTATGGC is 0.989; for ACAGCGGGTC it is 1. The figure for CCACACTTCA is 1.11. Consider CATCCGTACT, for which the switch fluorescence ratio is 2.82. The figure for TTTAAGTGTG is 0.967; for CTCCAGGTCT it is 1.28. The figure for GCAAGTTTAG is 0.988. The figure for ACTGGCAGGA is 1.03; for CACCGAACCT it is 1.15; for AAATCAGGAC it is 1.05. Regarding GCGCAATATT, the switch fluorescence ratio is 4.6.

TTTCGCTTTC: the switch fluorescence ratio came out at 1.04. The figure for CATGCAAGCC is 2.88; for GGCACTCCTT it is 1.03. For GCCATCCGGG the value was 1.05; for TTTGCCCCCC, 1.44; for CCCTTGGATT, 1.04. For GCTAGCCTGA the value was 1.03. CTCGTAGTCC: the switch fluorescence ratio turned out to be 1.07.

Take GACGGAATGT: the switch fluorescence ratio turned out to be 1.64. The figure for AGGACAACGA is 1.01. For TCAATCTGCG the value was 1.05; for TGTTAAGTAT, 0.991. The figure for TCGAAGGAGG is 0.998; for CATCGAGGTG it is 1.06. Take AATCGGAGTA: the switch fluorescence ratio stood at 0.971. For AACAGAGGG the value was 0.984. The figure for AAGCATTCA is 1.04; for AGGGCTCGG it is 0.985; for TTGGGCTAAG it is 0.96. With GGTTATACGC, the switch fluorescence ratio is 1.02. For TTTTCACAGC the value was 1.06; for CCGCATAGAA, 2.87; for ATCATCTCAT, 0.975.

For the sequence GTTCCTGCAG, the switch fluorescence ratio worked out at 1.13. The figure for GGCCATCGAA is 0.981; for GCTTAAACCT it is 2.48. The figure for CCGACTGATT is 4.45; for GATACTCAAT it is 0.985. The figure for CTGCTTGAAT is 1.06.

For CATCTCATAA, the switch fluorescence ratio is 1.01. With GCATCCTCAA, the switch fluorescence ratio stood at 1.8. On to TTATGCCAGT, for which the switch fluorescence ratio is 1.01. Consider ACTTTCGCTA, for which the switch fluorescence ratio was 1.36. The figure for CAATGTACCA is 1.08; for GGGGTTAATC it is 0.986; for CGATTCATGG it is 0.978. The figure for TACCATACG is 1.43; for AACTACTTAA it is 0.972. The figure for TTCTGTTCA is 1.03; for TGGTTATGGA it is 0.972; for CTGAAATTTC it is 1.05. For the sequence CGGTTCGAGC, the switch fluorescence ratio amounted to 1.02. The figure for CACCTATAGC is 1.05; for TGTGGTGTG it is 1. For GCCGGGCTTT the value was 0.985. As to TTGTGGTAC, the switch fluorescence ratio was found to be 1.38. TAGGCAACGT: the switch fluorescence ratio turned out to be 0.984.

For the sequence TCAGCAGGCC, the switch fluorescence ratio stood at 0.976.

TAGTCGATCG: the switch fluorescence ratio amounted to 0.993. For CATGTGATA the value was 1.01; for GCCTAAAATT, 1.02. The figure for CTGTGAGATT is 1.01; for GGCGGAGGCA it is 0.962; for TAGCCTCTGT it is 1.02. For AGGTTTGTGC the value was 0.94; for TTCGTAAGAT, 1.08; for TTGGTGATTA, 1. Consider TGGTCATGAT, for which the switch fluorescence ratio worked out at 0.961.

Turning to TCAGCCTGGC, the switch fluorescence ratio stood at 1.08. For ACAACGGAAA the value was 1; for GAGTCTTA, 0.997; for TTAGGGCTGG, 0.986. TAAAGCATCA: the switch fluorescence ratio was found to be 0.947.

For the sequence TGCTACGCGG, the switch fluorescence ratio was determined as 1.34.

For GCACTTGTTA, the switch fluorescence ratio was determined as 0.965.

With AAGGCGCTAT, the switch fluorescence ratio is 1.01. For GACCGTTAAT the value was 1.05; for TATACCGAT, 1.01; for AAAGCGTCAC, 1.14. As for GAAGTAATTG, the switch fluorescence ratio was found to be 0.988. The figure for TATCGGTAAG is 0.962; for CGATTTAGC it is 1.01.

For ACAGGGCCCT, the switch fluorescence ratio stood at 1.04. For GATTTATGGG the value was 1.01; for CACAACGTGG, 0.984; for TTTGGCCTGG, 1. For TATAAGGCAT the value was 0.964. The figure for GAAGGCCTGA is 1. Turning to AAATTACCGA, the switch fluorescence ratio came to 1.11. For TGCAGCAAGC the value was 3.98. For TAGGCGCATA the value was 1.07.

For GAGGAGTGAT, the switch fluorescence ratio turned out to be 1. As to CGTCAACCGT, the switch fluorescence ratio worked out at 0.976. For GACGGTGTCG the value was 1.19; for GGTTCATCGC, 1.04; for TAGGTACTTA, 0.986. For TCCAGAATAA the value was 1.06; for TAGAGCGTTC, 1.

Take GACCAAAATA: the switch fluorescence ratio is 1.04.

As for TTCTCCCGAG, the switch fluorescence ratio is 1.15.

For TGTTTTGCTA, the switch fluorescence ratio amounted to 1.03. The figure for CTCAGAGGTA is 0.993; for TGAATTGTCT it is 0.979.

For GATTAGGAGC, the switch fluorescence ratio was determined as 1.04. On to GACAACCGA, for which the switch fluorescence ratio came to 1.13. For TATAGCTTAA the value was 0.978; for GATCATAT, 0.971. For TGTATCAGTT the value was 1.03; for AAAATATAGC, 0.98; for GGTTACAAAA, 1.02. For TATGGGTGAA, the switch fluorescence ratio was 1.04. With CCCCTCATCG, the switch fluorescence ratio is 1. GAATAAGGT: the switch fluorescence ratio is 1.02.

For GGATGTGTCC, the switch fluorescence ratio was 1.02. For TCTGTATTAT the value was 0.993; for TTAGAAGCC, 0.95.
